# Assay results taken from the RNAGym collection of RNA variant scans (doi:10.7554/elife.90254).
# The source gives no read counts; variants with many changes may rest on few reads.
# B1: LINE1-full (parent)
# chain: UACGUAGGUGGUUUUCCCCUGAUAGUGCUAAGGGGGCCUGGAAGUUUGGACUGGGCAGAGCUCAACACAGCGUGGCAAAGUGGCUGUGGCUAGACUGCCUCUCUGGAUUCCUCGUCACUCAGCAGGGCAUCUCUGAGAGAAAUGCC
# Variants of: B1
# Experiment: self-cleavage, relative activity (ratio to wild type); higher = more cleavage; in vitro, sequencing; the parent is a self-cleaving ribozyme
row,Variant,self-cleavage
1,U46C U47G C120A,0
2,U46A C66U G70U A121U A142G,0.01
3,U5C G82A U102A,1.72
4,U12G U47A U73A A94G,0.13
5,U9A U20C G53U A117G,1.56
6,U23C A67G U115C,0
7,A43G A77G U102A U112A,1.48
8,U20C A22G C110U,0.83
9,U1C C38U A42G A117G A140G,0
10,U13A A57U U91C,0.03
11,U12G U23C A79G G83A,1.19
12,U29C G137A U143C,1.16
13,U14A U15C A31U U143A,1.28
14,U9A A42G A64G U81A A136G,0.57
15,A30G A65U A136G,0.5
16,A2G U20A U87A U112A,0.24
17,A6G A30G A42G A43G U47C,2.63
18,A57G U62C A136G,0.02
19,U13C U46C U112C U143G,1.37
20,U13C A67G A78G,0.26
21,A92G U96C C116A A117G U130A,0
22,A24G C51U A57G A142C,0.51
23,U47A U62C U112C,0.16
24,U15C U52A U102C U115C,2.1

row,Variant,self-cleavage
1,U1C A22G G36C A129G U132C,1.15
2,A57U A107G U143C,0.1
3,U12C U15C A124G,0.84
4,G4A A22G U47C G97A G114A,0.11
5,U12A U81C A107U,1.44
6,C28U A64G C128U,0.13
7,U13A A107U C123G A136G,1.46
8,U20C A50G C51A A78G U87C A140G,0.08
9,U12C A43G U52A,1.7
10,U1C U26A A124C,0.79
11,A22G G34U G55A,0.65
12,U85A U109C A138G,0.06
13,U12C A31U U52A,0.63
14,U5C U62C U73A G114A U134C,0.1
15,U15C A69G G70A A129U,0.06
16,G49A A79G U100C,1.23
17,G4A U13A U62C U115A,0.12
18,U9C U15A A138G,0.89
19,U15A A43G A64U A141G,0.41
20,U39G G75U A94G U104A U130A,0.16
21,U39A U96A U102C A129G,0.11
22,A30G C66U U87C,0
23,U13C A65G U119C,0.12
24,G8A C17A U45C,0.35

row,Variant,self-cleavage
1,A59G U62C U73A U85C A138G,0
2,U14C A22G G44A A64G A67G A77U A79G A94U U130A,0
3,A64U U119C A129U A141G,0.57
4,U9C U39A U108C A129G,2.3
5,A6G U13C U23C C66U A67G,0.36
6,U9C U13C A117U A121U A136G A142G,1.4
7,U20A A67G A124G,0.08
8,A2G U81A U112C U134C,1.46
9,U26A U81A A129U,1.03
10,U15A G89A U102A,0.05
11,G7U G32U U96C U134C,0.27
12,A2C U52C U104C A138G G144A,1.84
13,A2G A67U A107G U112A A141G,0
14,U12C U62C A69G A121U U134C,0
15,U15C A64G U130C,0.65
16,U5A U9A U52C G58A,0.11
17,U13C U104C A121U,0
18,U13C A50G A57U C113U A142G,0.12
19,A30U A43G A92G,0.21
20,A24G C71U U109C,0.26
21,G53A G75C U96A,0.05
22,A2G U20A A50G,1.44
23,G4U U29C A30U G139A,1.06
24,U1A G60A U119C,0.14

row,Variant,self-cleavage
1,A2U U26A A42G G106A,0.88
2,A43G A69U A117C,0.03
3,U91A G97A A117G U119A,0.04
4,U12C U134A A136G,1.46
5,G10A A22G A57G U91C,0
6,U14A G35A U47A U100C,0.62
7,U1A A6G A50G U100C,0
8,A30G A57G A67C,0
9,U13C A94G U119C,0.57
10,U12C U47C U102C,0.71
11,U12C U52C U119C,2
12,U14C A42G A124G,0.89
13,G40A U85C U104C U134G,0
14,A22G U81A A142G,2.27
15,U1C A57U U62G A107G,0
16,U13C A69G U73A,0.08
17,U13C G54U U73C C111U A124U,1.07
18,A6G U39C A64C,0
19,A22U A24U G58A A64G C101A,0.03
20,U12C G83A U109A U115C A141G,0.31
21,U47A A78G U132C A138G,1.75
22,U62C A77G A124U A136U A138G,0.03
23,U39C A94G A136G A138G A141G,0
24,A92G A136G A141G,0.03

row,Variant,self-cleavage
1,U91A U130A A138G U143C,1.12
2,G10A U13C U29C A43G U47A U102A A142G,0.79
3,A59G G75U U134C,0.05
4,G48A A79G A142G,1.01
5,U5C U14C U23C U45G,0.99
6,A2G U5C U13C G35A,1.53
7,A30G G74A A92G,0.05
8,A43G G60A A78C A121G,0.04
9,U26C G33A A129C,1.06
10,A65G U87G A138G,0.92
11,U14C U45G A129G,2.37
12,U9C A67U A94G,0.16
13,U14C A79G U100C,2.3
14,A22G U47A A117G,0.82
15,U20A A65U U73A,0.15
16,G70A A77G A138G,0.26
17,U12G U15A G139A,0.6
18,U13C U14C G89A U96A U108C,0.16
19,A43G U62C A77G U115A,0
20,A2G C16G U87A U115C,0
21,A22G G60A A65G,0.04
22,G40A U87A A138G,0.07
23,U47A U109A U119C U143C,1.7
24,A6G U9A U26A A69G U87C U143A,0

row,Variant,self-cleavage
1,U12C A67G G72A A78G U96C U132C,0.14
2,A59G A77U G126A,0.03
3,U13C A57G U115C,0.78
4,U9A A57G U81C,1.15
5,U15C A42U U62C A121U U132A,0.1
6,U45C U62C U112C U134C,0
7,A2G U23A A30U C84A,0.34
8,U15C U26C A65G G86A,0.07
9,U14C U29C U46C,0.78
10,A78G A121U G126A,0.63
11,U15C C19U U108C,1.48
12,U12C U15C A43G,1.04
13,U14C A31C U39C U91A,0
14,U13A A22G A50C,0.64
15,C18A A57U U100C U119C A142G,0.45
16,U20C U85C A94U A124U,0.14
17,U29C U91C A142G,0.56
18,A30G A43G U96A,0.05
19,A57G A77U U134C,0.75
20,C37U A78U U134C,1.86
21,A22U A24G A59C A77U U85A A117U G125A,0.19
22,U62C A78U U91C C113U,0.03
23,A50G A59G A138G,0
24,U12A U26C U29A U52C C99U,0.74

row,Variant,self-cleavage
1,A64G C113A G125A U132A,0.16
2,G10A A31U U62A U87A U134C,0.02
3,U62C U119C G126A,0.06
4,A24G U85C A138U A142G,0.59
5,U5C U20C U102C,1.02
6,U1A U62C U73C A140G A141G U143G,0
7,A43G U73A G105A,2.25
8,C28G U45C A121U,1.02
9,U29C U47A U85C G88A,0.07
10,U26C G54C A140G,0.77
11,G11U U13A A142G,1.15
12,U9G A42G C56U U104C G135A,0.33
13,U15C C28A U52G,0.75
14,A92U U108C U119C,1.72
15,U45A G53U U73C A124G,0.86
16,C71A U109C U112C,0.29
17,U12C A77G C99U G139U,1.28
18,A64U U102C U115C,0
19,A2G A22G A57U,0.22
20,U14C U52C U109C,0.37
21,G89U A92G U115C,0.27
22,U12C G60A A124U A142G,0.14
23,U12C U81C U115C G126U,2.96
